From PubChem BioAssay AID624417 (National Center for Advancing Translational Sciences (NCATS), 2012)
The whole screen tested about 410,000 compounds, of which about 6,400 (1.6%) were called active. The inconclusive results got no clear call from the source; some entries with a clear call stand among them for comparison. Calls come from the whole dose curve; as a rule, active = well fitted inhibition curve with a large enough effect; inconclusive = small, poorly fitted or top-dose-only effect; inactive = no such curve, though single readings can be large or run the other way. No potency is given beside an inconclusive call; the fits are too rough.
% is set by controls: 0 for no effect and ±100 for the full control effect; potency is the fitted concentration of half-maximal effect; tags give direction and shape of the fitted curve.
Note: nearly all actives have a fitted effect of over 55% in size.

What follows are compounds tested against Glucagon-like peptide 1 receptor (Homo sapiens) (UniProt P43220) (assay: qHTS of GLP-1 Receptor Inverse Agonists (Inhibition Mode)). Conditions: HEK293 GLP-1R CRE-luciferase, luminescence, 24 h, GLP-1R form is constitutively active; activity change, negative = inhibition: at 38.3 µM (top of the series) unless noted.
Chain of UniProt P43220 (P43220 whole entry, looked up): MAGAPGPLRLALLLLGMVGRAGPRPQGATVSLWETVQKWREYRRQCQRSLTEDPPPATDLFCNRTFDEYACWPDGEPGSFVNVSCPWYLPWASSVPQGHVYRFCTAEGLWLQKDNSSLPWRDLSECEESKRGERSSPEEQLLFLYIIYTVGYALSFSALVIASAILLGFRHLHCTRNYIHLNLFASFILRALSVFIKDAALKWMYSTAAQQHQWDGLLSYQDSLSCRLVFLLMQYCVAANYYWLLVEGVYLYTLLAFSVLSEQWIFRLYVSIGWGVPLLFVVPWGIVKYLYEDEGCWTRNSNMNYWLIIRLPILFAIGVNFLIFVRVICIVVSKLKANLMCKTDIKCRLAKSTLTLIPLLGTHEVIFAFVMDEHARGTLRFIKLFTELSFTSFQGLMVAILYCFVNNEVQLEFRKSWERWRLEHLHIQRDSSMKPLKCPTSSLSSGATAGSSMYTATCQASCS
Procedure, shortened: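 HEK293 cells stably co-expressing a cAMP-responsive luciferase reporter and constitutively active GLP-1R were seeded, incubated 12 h, then exposed to compounds for 24 h at 37 C. Luminescence was read 12 min after detection reagent; inverse agonists lower signal.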
`COc1ccc(Nc2nc(N3CCCCC3)c3ccccc3n2)cc1` was tested, and the Potency was active: 5.62 µM. `C[C@@H]1CCCCO[C@@H](CN(C)Cc2ccc(Cl)c(Cl)c2)[C@@H](C)CN([C@H](C)CO)C(=O)c2cc(NC(=O)Nc3ccccc3)ccc2O1` was tested, and the Potency was inconclusive [inhibitor, single point]. With `CC1=C(C(=O)Nc2cc(C(=O)N3CCN(c4ccc(Cl)cc4)CC3)ccc2C)SCCO1` the Potency was inconclusive [inhibitor, single point]. For `COc1cccc(-c2csc(N3CCN(C(=O)Nc4ccc(Cl)cc4)CC3)n2)c1`, the Potency was inconclusive [inhibitor, partial curve, poor fit]. For `Cn1c(CCc2ccc(N)cc2)nc2ccccc21`, the Potency was inconclusive [inhibitor, single point]. For `COc1cc(Cl)c(C)cc1NC(=O)Cc1cccs1`, the Potency was inconclusive [inhibitor, single point]. In the case of `O=C(Cc1c[nH]c2ccccc12)OCC(=O)c1ccccc1`, the Potency is reported as active: 12.6 µM. For `COCCOC(=O)c1c(C)oc2ccc(OS(C)(=O)=O)cc12`, the “activity change, negative = inhibition” value was inactive: 18.5%. For `COC(=O)C1C(=O)c2c([nH]c(C(=O)OC3CCCC3)c2C)CC1C` (centres undefined), the Potency was inconclusive [inhibitor, single point]. In the case of `CCc1cccc(CC)c1NC(=O)COC(=O)C1(c2ccc(Cl)cc2)CCCC1`, the Potency is reported as inconclusive [inhibitor, full curve, poor fit]. In the case of `CCc1nnc(NC(=O)c2ccc(Cl)c(S(=O)(=O)N3CCc4ccccc43)c2)s1`, the “activity change, negative = inhibition” value is reported as inactive: -18.1%. With `Cc1ccc(CSCC(=O)N(C)CC(=O)Nc2ccc(C)cc2)cc1` the Potency was inconclusive [inhibitor, single point]. `C=CCNC(=O)c1ccc2c3n(nc2c1)-c1ccccc1CO3` was tested, and the Potency was inconclusive [inhibitor, partial curve]. For `CC(Sc1nnc(-c2ccccc2)c(-c2ccccc2)n1)C(=O)Nc1ncc(Cl)cc1Cl` (centres undefined), the Potency was inconclusive [inhibitor, partial curve, poor fit]. In the case of `Cc1ccc(-c2nc3n(n2)Cc2ccccc2-3)cc1`, the Potency is reported as inconclusive [inhibitor, partial curve, poor fit]. With `CC(c1ccco1)N(C(=O)c1ccccc1NS(=O)(=O)c1ccc(Cl)cc1)c1ccccn1` (centres undefined) the Potency was inconclusive [inhibitor, partial curve]. `CCn1cc(C(=O)NCCc2ccc(C)cc2)c(=O)c2cc(S(=O)(=O)N3CCc4ccccc4C3)ccc21` was tested, and the “activity change, negative = inhibition” value was inactive: -1.24%. With `O=S(=O)(NC1C2CC3CC(C2)CC1C3)c1ccccc1` (centres undefined) the Potency was inconclusive [inhibitor, single point]. For `Cc1cc(N2CCOCC2)nc2ccc(NC(=S)N3CCN(c4ccccc4)CC3)cc12`, the Potency was inconclusive [inhibitor, single point]. With `Cc1ccccc1C(=O)NNc1ccc(-c2csnn2)cc1` the Potency was inconclusive [inhibitor, full curve, poor fit]. For `COc1cc(OC)cc(-c2nc3ccccc3c(=O)n2OC(=O)c2ccc(C)c(C)c2)c1`, the Potency was inconclusive [inhibitor, partial curve, poor fit]. For `CC(C)O/N=C1\C(=O)N(c2ccccc2)c2ccccc21`, the Potency was inconclusive [inhibitor, partial curve, poor fit]. For `Cc1cc(C)cc(OCC(=O)Nc2ccncc2)c1`, the Potency was inconclusive [inhibitor, single point]. With `CC1Cc2ccccc2N1C(=O)C(C)n1cc(C(F)(F)F)cc(Cl)c1=O` (centres undefined) the Potency was inconclusive [inhibitor, single point]. With `CC(=O)c1ccc(N2CCN(C(=O)CCn3cnc4onc(-c5ccc(F)cc5)c4c3=O)CC2)cc1` the Potency was inconclusive [inhibitor, full curve, poor fit]. In the case of `C/C(=N\N=C(N)N)c1ccc(C)c(C)c1`, the Potency is reported as inconclusive [inhibitor, single point]. In the case of `CCC(C)(C)n1nnnc1C(c1ccc(C)cc1)N1CCSCC1` (centres undefined), the Potency is reported as inconclusive [inhibitor, single point]. In the case of `CC(=O)Oc1ccc2ccccc2c1C(NC(=O)Cc1ccccc1)c1ccc(Cl)cc1` (centres undefined), the Potency is reported as inconclusive [inhibitor, partial curve, poor fit]. For `OCCC1CN(Cc2cnn(-c3ccc(F)cc3)c2)CCN1Cc1ccsc1` (centres undefined), the Potency was inconclusive [inhibitor, full curve, poor fit]. For `CCN1CCN(S(=O)(=O)c2ccc(Cl)c(C(=O)N(C)Cc3ccc(Cl)cc3Cl)c2)CC1`, the Potency was inconclusive [inhibitor, single point]. For `CCOc1ccc(CCNC(=O)CS(=O)(=O)Cc2nc(-c3cccc(Cl)c3)oc2C)cc1`, the Potency was inconclusive [inhibitor, single point]. For `COc1ccc(C)cc1S(=O)(=O)N1CCN(c2ccccc2)CC1`, the “activity change, negative = inhibition” value was inactive: -16.4%. For `COc1ccc(Nc2c3c(nc4ccccc24)CCC3)c(OC)c1`, the activity change, negative = inhibition was inconclusive: -86.3% [inhibitor]. In the case of `COc1ccc(-c2noc(C3CCCN(C(=O)c4ccccc4)C3)n2)cc1` (centres undefined), the Potency is reported as inconclusive [inhibitor, partial curve, poor fit]. `COc1ccc(NC(=O)C2CCCN(C(=O)c3cnn(-c4ccccc4)c3-n3cccc3)C2)cc1` (centres undefined) was tested, and the Potency was inconclusive [inhibitor, single point]. `COc1ccc(N=Cc2cc3c(cc2O)OC(N)=C(C#N)C3c2ccccc2)cc1` (centres undefined) was tested, and the Potency was inconclusive [inhibitor, partial curve, poor fit]. `CC(=O)c1c(Nc2ccccc2)sc(C(=O)c2ccccc2)c1C` was tested, and the Potency was inconclusive [inhibitor, single point]. In the case of `CSc1ccccc1NC(=O)CSCc1ccc(C)cc1`, the Potency is reported as active: 5.01 µM. In the case of `COc1ccc(C2CC(c3cccs3)=NN2C(=O)CCl)cc1OC` (centres undefined), the Potency is reported as inconclusive [inhibitor, full curve, poor fit].
